Experimental data: the supplement of paper PMC4166925
± gives the standard deviation of the averaged measurements. Over roughly 33,000 sequences, “E-score (dimensionless, -0.5 to 0.5)” has its median near -0.046; the highest 2% begin near 0.36. The list shows a part of the results.

Each sequence was assayed on T1, SpTbr T-box DNA-binding domain (GST fusion) (assay: PBM E-score of 8-mer (E-score (dimensionless, -0.5 to 0.5)); Tbr is Tbrain of the sea star Patiria miniata (Pm) or the sea urchin Strongylocentrotus purpuratus (Sp); higher = stronger binding preference; most listed sequences are background and not binding sites). Conditions: the construct has about 5 more residues each side.
T1 sequence: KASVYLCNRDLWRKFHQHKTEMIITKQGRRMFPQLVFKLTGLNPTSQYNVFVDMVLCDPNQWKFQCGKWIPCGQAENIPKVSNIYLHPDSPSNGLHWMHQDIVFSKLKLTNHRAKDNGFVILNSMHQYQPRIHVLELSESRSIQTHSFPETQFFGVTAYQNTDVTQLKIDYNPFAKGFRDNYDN
Summary of the method: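 Expression of GST-fused Tbr T-box DNA-binding domains, each holding the full T-box plus roughly five flanking residues, was carried out in BL21 E. coli at 20 °C, with purification by glutathione affinity chromatography. Universal Agilent arrays made double-stranded by primer extension were incubated with the protein at 200 nM in PBS (pH 7.5), then scanned and quantified. All ungapped 8-mers were scored from probe intensities, and each received an enrichment E-score from the Universal PBM Analysis Suite, averaged over duplicate arrays.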

Sequence | PBM E-score of 8-mer
GAACACGA | 0.134 ± 0.011
GGTTCAAC | -0.191 ± 0.03
AAGATAGT | -0.0458 ± 0.032
GTCGGGAA | -0.0482 ± 0.12
CCCCCGTA | -0.118 ± 0.0072
CTACTGAA | -0.0616 ± 0.096
TACTTCAA | -0.268 ± 0.072
CGGGCAAG | -0.14 ± 0.014
CCTACCTC | -0.0944 ± 0.045
CTATATTA | 0.0961 ± 0.071
ATGACCCA | 0.0214 ± 0.029
CCCATAGC | -0.0872 ± 0.052
CCAAATTC | 0.0501 ± 0.069
ATTGTAGG | -0.0404 ± 0.012
CCCTGGAG | -0.163 ± 0.028
AGGGGACA | -0.0306 ± 0.072
ATACGTAC | -0.106 ± 0.049
ATTACAGA | -0.129 ± 0.08
AAGAAGTG | 0.215 ± 0.037
CGTTCATC | -0.124 ± 0.027
CAAGGTAC | -0.00393 ± 0.044
CATGTCTC | -0.122 ± 0.052

Sequence | PBM E-score of 8-mer
CAACGTAA | -0.126 ± 0.083
ATAATTGC | -0.0597 ± 0.05
CGATAAGA | 0.0897 ± 0.13
CGTCTGAG | -0.143 ± 0.043
GGTGGCAA | 0.4 ± 0.011
AGAGTTGG | -0.0633 ± 0.02
ACTTCACC | 0.111 ± 0.026
AGCTTATA | -0.145 ± 0.034
CCCTGAGC | -0.067 ± 0.045
CATTGGAA | -0.0666 ± 0.03
ACCATCAG | 0.13 ± 0.018
CGGGGGAC | -0.117 ± 0.088
CAAAGTAG | -0.0627 ± 0.067
AATCTCCA | -0.0617 ± 0.0052
ACTATAGG | -0.0444 ± 0.017
GACTTCTA | -0.0712 ± 0.036
AGGCAGAC | -0.227 ± 0.0024
ACTCGACT | -0.0975 ± 0.099
GAGCCCAC | -0.0561 ± 0.063
CCTGAACA | 0.0575 ± 0.025
ACGGTGGA | -0.246 ± 0.047
CCTAAGTC | -0.0819 ± 0.023

Sequence | PBM E-score of 8-mer
AGTGAAAT | 0.168 ± 0.083
CTGGCCTC | -0.1768 ± 0.00059
CCTCTAAG | 0.0434 ± 0.088
GGGCGTAA | 0.131 ± 0.047
AGGAGTTC | -0.0878 ± 0.073
AACTTCAG | -0.23 ± 0.022
AAGTGTAC | 0.00907 ± 0.056
GGTTGAAA | -0.0413 ± 0.0068
GTGATTGA | 0.129 ± 0.017
CGCAAACC | -0.00956 ± 0.028
AAGGAAGA | -0.274 ± 0.015
ACCTGCTG | 0.0521 ± 0.065
AAACCCGA | -0.0333 ± 0.034
AGGCATGC | -0.293 ± 0.058
CGCGAGAC | 0.362 ± 0.0035
CCCATGTA | -0.15 ± 0.095
GAGATAGA | -0.129 ± 0.048
TCCATGGA | -0.299 ± 0.02
GGCCTCTA | -0.108 ± 0.024
TAGTGTAA | 0.216 ± 0.061
TATGCCCA | -0.172 ± 0.0048
AAATGCAC | -0.0295 ± 0.012

Sequence | PBM E-score of 8-mer
ATCAAGTG | 0.141 ± 0.055
CCATATTA | -0.0793 ± 0.042
ATGCTCAC | 0.277 ± 0.023
CCTTCGCC | 0.0466 ± 0.011
ATTCGCGG | 0.275 ± 0.026
ACATCTCC | 0.104 ± 0.048
AAGTCTAA | -0.0918 ± 0.066
CAATTTAG | -0.0519 ± 0.043
CGGGTCGC | 0.232 ± 0.0024
TAGGTAAA | -0.134 ± 0.015
TGTAGAAA | -0.0991 ± 0.044
TCTCATAA | -0.196 ± 0.12
AACCACTT | -0.0435 ± 0.018
AGCTTCCC | -0.121 ± 0.055
TGCTACAA | -0.124 ± 0.023
AACCTGGA | -0.129 ± 0.067
CCCCTCAG | -0.232 ± 0.0077
CATACAAC | 0.0189 ± 0.0052
CCGGATTC | 0.0737 ± 0.067
CTCCTACA | 0.00648 ± 0.019
